Some of the results follow. Shown are side measurements of this screen, not its main read-out; they come without a call. The list favours compounds with an active or inconclusive main result. Potencies come from curve fits of mixed quality, noted in brackets.

This assay can be described thus: qHTS Assay for Lipid Storage Modulators (AID 1519). Particulars: Drosophila S3 cells, BODIPY lipid droplet/cell ratio, laser cytometry, cells loaded with oleic acid. The essentials: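 Cells seeded at 5,000 per well were treated with compounds over a concentration series and loaded with oleic acid (400 uM, as added). Lipid droplet fluorescence (488 nm excitation, 500-530 nm channel) was read by laser-scanning cytometry and normalized to 20 uM Triacsin C.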

The mark [1] stands for this setting: measured here: cell count channel max response.
Where [2] appears, read: measured here: lipid (BODIPY) channel AC50.
[3] abbreviates: measured here: lipid channel max response.
[4] abbreviates: measured here: cell number channel AC50.
Tags give direction and shape of the fitted curve.

Usually AC50 stands for the midpoint of the concentration-response curve, whichever way the signal moves. As to `NNC(=O)c1ccncc1`, the max response under setting [1] came to 19.4% and the max response under setting [3] was 30.9%. Under setting [2], the AC50 was 15800 nM [rising, partial curve].

As for `CC(C)c1c(O)ccc2c1CCC1C(C)(C)CCC[C@@]21C` (stereo partly specified), the max response is -10.1% under setting [1] and -57% under setting [3]. Further, the AC50 under setting [2] is 31600 nM [falling, single point].

In the case of `COCCn1c(=O)c(-c2ccccc2)nc2cnc(Nc3ccccc3)nc21`, the max response reads like this: under setting [1], 1.7%; under setting [3], -3.81%. Moreover, the concentration at half-maximal activity (AC50) under setting [2] was 141 nM [rising, full curve, poor fit].

Take `NC(=O)c1ncn(C2OC(CO)C(O)C2O)c1N` (stereo unspecified): the max response runs as follows: under setting [1], 21.6%; under setting [3], 30.8%. Besides, the AC50 under setting [2] was 39800 nM [rising, single point].

Turning to `CC(C)=CCc1c(O)cc(O)c2c1O[C@H](c1ccccc1)CC2=O`, the max response by setting is: under setting [1], 50.7%; under setting [3], 90.7%. In addition, under setting [2], the AC50 was 35500 nM [rising, single point].

Consider `COc1ccc(C(=O)N2CCC3(CCCN(C)C3)CC2)cc1`, for which the max response under setting [1] came out at 24.1% and the max response under setting [3] turned out to be 31%. Further, the AC50 under setting [2] was 158 nM [rising, full curve, poor fit].

Regarding `CN(C)c1ccc(-c2nc(NC3CCNCC3)c3ccccc3n2)cc1`, the max response was -22.1% under setting [1] and -54.5% under setting [3]. Further, under setting [2], the AC50 was 39800 nM [falling, single point].

As to `COc1ccc2[nH]cc(CCNc3ccnc(-c4ccccc4C(F)(F)F)n3)c2c1`, the max response amounted to 6.02% under setting [1] and 3.16% under setting [3]. Under setting [2], the AC50 is 794 nM [rising, full curve, poor fit].

`O=c1c(-c2cccs2)nc2cncnc2n1C1CC1`: the max response under setting [1] is 26.4% and the max response under setting [3] was found to be 35%. Moreover, the AC50 under setting [2] is 100 nM [rising, full curve, poor fit].

As to `COc1ccc2[nH]cc(CCNc3nc(-c4ccccc4CN(C)C)nc4ccccc34)c2c1`, the max response by setting is: under setting [1], -29.5%; under setting [3], -31.7%. The AC50 under setting [2] was 39800 nM [falling, single point].

Take `CC(=O)NCCc1c[nH]c2ccc(O)cc12`: the max response is, setting by setting: under setting [1], 22.7%; under setting [3], 22.6%. For the same molecule, under setting [4], the AC50 was 5620 nM [falling, partial curve, poor fit].

With `CCNc1ncc2nc(-c3ccc(F)cc3)c(=O)n(C[C@H]3CCCO3)c2n1`, the max response is -13.8% under setting [1] and -44.8% under setting [3]. The AC50 under setting [2] is 31600 nM [falling, single point].

As for `O=c1c(-c2ccccc2)nc2cnc(N3CCOCC3)nc2n1C[C@H]1CCCO1`, the max response came to 1.42% under setting [1] and 0.502% under setting [3]. Also, the AC50 under setting [2] was 8910 nM [rising, single point].

With `O=C(c1csnn1)N1CCC2(CCCN(c3ncccn3)C2)CC1`, the max response came out at 13.6% under setting [1] and 21.9% under setting [3]. Further, the half-maximal activity concentration (AC50) under setting [4] is 5010 nM [rising, partial curve].

As to `C=CC(C1=CC(=O)C(OC)=CC1=O)c1ccc(OC)cc1` (stereo unspecified), the max response under setting [1] was determined as 1.9% and the max response under setting [3] stood at 24.1%. Besides, the AC50 under setting [2] was 1780 nM [rising, full curve, poor fit].

As to `COc1ncc2nc(C)c(=O)n(Cc3cccs3)c2n1`, the max response is, setting by setting: under setting [1], 26.6%; under setting [3], 37.7%. Moreover, under setting [2], the AC50 is 5.62 nM [rising, full curve, poor fit].

In the case of `COc1ccc(-c2nc3cnc(N4CCOCC4)nc3n(Cc3cccc(OC)c3)c2=O)cc1`, the max response under setting [1] worked out at 26.4% and the max response under setting [3] stood at 34.1%. Besides, the AC50 under setting [2] was 224 nM [rising, full curve, poor fit].

As for `O=C(c1cccc(F)c1)N1CCC2(CCCN(Cc3nccs3)C2)CC1`, the max response runs as follows: under setting [1], 23.1%; under setting [3], 29.5%. Besides, the AC50 under setting [2] was 7.94 nM [rising, full curve, poor fit].

As for `N#CCCn1c(=O)c(-c2ccccc2)nc2cnc(Oc3cccc(Cl)c3)nc21`, the max response reads like this: under setting [1], 13.4%; under setting [3], 20.8%. In addition, the AC50 under setting [2] is 5.62 nM [rising, full curve, poor fit].

With `CN1CCN(c2ncc3nc(-c4ccc(Cl)cc4)c(=O)n(C)c3n2)CC1`, the max response came to 7.92% under setting [1] and 16.3% under setting [3]. Besides, the AC50 under setting [2] was 1260 nM [rising, partial curve, poor fit].

For `COCCn1c(=O)c(-c2cc(F)cc(F)c2)nc2cnc(Oc3cccc(Cl)c3)nc21`, the max response is 15.1% under setting [1] and -1.98% under setting [3]. Further, the AC50 under setting [2] was 1260 nM [rising, partial curve].

For `Cn1cc(-c2nc3cnc(Oc4ccccc4)nc3n(Cc3cccs3)c2=O)c2ccccc21`, the max response is 21% under setting [1] and 25.7% under setting [3]. The AC50 under setting [2] is 631 nM [rising, full curve, poor fit].

For the molecule `COc1ncc2nc(C)c(=O)n(C)c2n1`, the max response was 22.9% under setting [1] and 28.8% under setting [3]. Moreover, the AC50 under setting [2] was 1580 nM [rising, full curve, poor fit].

Take `Cn1cc(-c2nc3cnc(Oc4cccc(Cl)c4)nc3n(C3CC3)c2=O)c2ccccc21`: the max response is -2.82% under setting [1] and -6.99% under setting [3]. Besides, under setting [2], the AC50 is 89.1 nM [falling, full curve, poor fit].

For the molecule `COc1ccc2[nH]cc(CCNc3ccnc(-c4ccccc4C)n3)c2c1`, the max response was determined as 13.5% under setting [1] and 19.2% under setting [3]. Further, the AC50 under setting [2] is 562 nM [rising, full curve].

With `Cc1cccc(CNc2nc(-c3cccnc3)nc3ccccc23)c1`, the max response was determined as 5.2% under setting [1] and 21.4% under setting [3]. For the same molecule, the AC50 under setting [2] was 15.8 nM [rising, full curve].

For the molecule `O=c1cc(-c2ccc(O)c(O)c2)oc2cccc(O)c12`, the max response reads like this: under setting [1], 14.8%; under setting [3], -97.3%. Under setting [2], the AC50 was 44700 nM [falling, single point].
